Experimental findings from the RNAGym collection of RNA variant scans (doi:10.7554/elife.90254) are described below.

First the molecules themselves.
B1: LINE1-mini (parent)
chain: GGCAGAGCUCAACACAGCGUGGCAAAGUGGCUGUGGCUAGACUGCC

Read counts are not given, so values of variants with three or more changes are uncertain.

In the data set the parent is B1. Briefly: self-cleavage, relative activity (ratio to wild type); higher = more cleavage; in vitro, sequencing; the parent is a self-cleaving ribozyme.
As for GGAAGAGCUCAACACAGCCUGGCAAAGUGGCUGCGGCUGGACUGCC, the self-cleavage is 0.24.
To GGAACAGCGCAACACAGCGUGGCAAUGUGGCUGUGGAUAGACUGCC belongs 0.55.
To GGAAGAGCUCAACACAGCGUUUCAAAGUGGCAAUGGCUAGACUGCC belongs 0.08; to GGAAGAGCUCAACAAAUCGUGGCAAAUUGGCUGUGGCUAGACUGCC, 1.33; to GGAAGAGCUCAACAUGUCGUGGCACAGUGGCUGUGGCUAGACUGCC, 0.13.
For GGAAGAGCUCAAAACAGCGUGGCAAAGUGGCAGUGGAUACACUGCC, the self-cleavage was found to be 0.01.
In the case of GGAAGAGCUCAACACAGCGUGGCAAAGUGGCUGUGGAUAGACUGAC, the self-cleavage is 0.14.
With GGAACAUCUCAACGCAGCGAGGCAAAGUGGCUGUGGCUAGACUGCC, the self-cleavage came to 0.55.
Then GGAAUAGCUCUACACAGCGUGGCAAAGUGGCUGUGGCUAGACUGCC, with 0.05; and GGAAAAGCUCAACACAGCGUAGCAAAGUGGCUGUGGCUAGACUGCC, with 1.35.
Then GGAACAGCUCAACCCAGCGUGGCAAAGUGGCUGUGGCUAGACUGCC, with 0.05; and GGAAGAGCUCAACACAGGGUGGUAAAGUGGCUGUGGCUAGACUGCC, with 0.6.
Then GGAAGAGCUCAACACAGCGUGGCAAAGUAGCUGAGGCUAGCCUGCC, with 0.15.
Consider GGAAGAGCUCAACAAAGCGUGGCAACGUGGAUGUGGCUAGACUGCC, for which the self-cleavage was found to be 0.32.
Regarding GGAAGAGCUCAACACAGCGUGGCAAAGUGGGUGUGGCUAGACUGAC, the self-cleavage stood at 0.05.
Then GGAAGAGCUCAACACAGCGUUGCAAAGUGGCUGUGGCUAGAUUGCC, with 0.21.
Consider GGAACAGCUCAAGACAGCGCGGCAAUGUGGCUGUGGCUAGACUGCC, for which the self-cleavage was 0.21.
Turning to GGAAUAGCUCAACACAGCGUGGCAAAGUGGCUGUGGCUAGUCUGCC, the self-cleavage amounted to 0.08.
To GGAAGAGCUCAACACACCGUGGCAAAGCGGCUGUGGCUAGACUGCC belongs 0.9; to GGAAGAACUCACCCCAGCGUGGCAAAGUGGCUGUGGCUAGACUUCC, 0.06.
To GGAAGAGCUCAACAAAGCGUGGCAAAGUGACUGUGGCUAGACUGCC belongs 0.15; to GGAAAAGUUCAACACAGCGUGGCAAAGUGGCUGUGGCUAAACGGCC, 0.71; to GGAAGAGCUCAACACAUCGUGGCAAAGGGGCUGAGGCUAGACUGCC, 0.25.
Then GGAAGAACUCAACACAGCGUGGCAAAGUGGCUGUGGCUAGACUGCU, with 0.99.
Take GGAAGACCUCAACACAGCGUGGCAAAGUGGCUGUGGCUAGACAGCC: the self-cleavage turned out to be 0.06.
To GGAAGAGCUCAACACACCGUGGCAAAGUGGCUGUGGCUAGGCUCCC belongs 0.06; to GGAAGAGCUCAACACAGCGUGGCAAAGUGGGAGUGGCCAGACUGCC, 0.04.
To GGAAGACCUCGUCAAAGUGUGGCAAAGUGGCUGUGGCUAGACUGCU belongs 0.04.
To GGAAGAGCUCAACACAUCGUGGGAAAGAGGCUGUGGCUAGACAGCC belongs 0.02; to GGAAGAGCUCAACACAGCGUGGCAAAGUGGCUGUGGCUAGAUUCCC, 0.22; to GGAAGAGCUCAACAUAUCGUAGCAAAGUGGCUGUGUCUAGACUGCC, 0.17.
As to GGAAGAGCUCAACACAGCGUGGUAAAGUGGCUUUUGCUAGAAUGCU, the self-cleavage was 0.11.
With GGAAGAGCUCAACACAGGGUGGCAAAGUGGCUGUUGCUAGACUGAA, the self-cleavage was 0.12.
To GGAAGAACUAAACACAGCUAGGCAAAGUGGCUGUGGCUAGACUGCC belongs 0.05.
To GGAACAGCUCAACACAGCGUUGCAAAGUGGCUGAGGCUAGACUGCC belongs 0.14; to GGAAGAGCUCAACACAGCGUUGCAAAGUGGCUGUGGCUGGAAUUCC, 0.12.
Regarding GGAAGAGCUCAACACAGCGUGACAAAGUGGCUCUGGCUAGACUGCC, the self-cleavage was 0.15.
Then GGAAGAGCUCAACACAGGGUGCCAAAGUGGCUGUGGCUAGACUGCC, with 0.53; and GGAAGAUCUCAACACAGCGUGGCAAAGUGGCUUGGGCUAGACUGCU, with 0.29; and GGAAGAGCUCAACACAGCGUGGCAAAGUCGGUGUGGCUAGACUGCA, with 0.28.
To GGAAGAGCUCAAUACAGCGUGGCAAAGCGGCUGUGACUCGACUGCC belongs 0.27.
Then GGAAGAGCUCAACACAUCGUGCCAAAGUGGCCGUGGAUAGUCUGCC, with 0.11; and GGAAAAGCUCAACACAGUGUGGCAAAGUGGCUGUGGCUAGACUGCC, with 0.2; and GGAAGAGCUCAACACAGUGUGGCAAAGUGGCUGUGGCUAGACGGCC, with 1.94.
GGAAGAGCUCAACACAGCGUUGCAUAGUGGUUGUGGCUAGACUGCC: the self-cleavage is 0.05.
Then GGAAGAGCUCAACACAGCGUCGCAAAGUGGCUGUUGGUAGACUGCC, with 0.09.
On to GGAAGAGCUCAACAGAGCGUGGCAUAAUGGCUGUGGCUAGACUGCC, for which the self-cleavage came out at 0.12.
Then GGAACAGCUCAACCGAGCGUGGCAAAGUGGCUGUGGCUAGACUGCC, with 0.28.
As to GGAAGACCUCAACACAGCGUGGCAAAGUGGGUGUGGCUAGACUGCC, the self-cleavage amounted to 0.05.
To GGAAGAUCUCAACACAGCGUGGCAAAAUGGCUGUGGCUGGCCUCCC belongs 0.21; to GGAAGACCUCAACACGGCUUGGCAAAGUGGCUGUAGCUUGACUGCC, 0.03; to GGAAGACCUCAACACAGCGUGGCAAAGUGGCUGUGGCCAGACUGCC, 0.17.
Then GGAAGAGCUCAAUAUAGCGUGGCAAAGUGGCUGUAGCUAGACAGCC, with 0.12; and GGAAGAGCUCAAUACAGCGUGGCACAGUGGCUGUGGCUAGCCUCCC, with 0.07.
As for GGAAGAGCUCAACACAGAGUGGCAUAGUUGCUGUGGCUACACUGCC, the self-cleavage worked out at 0.1.
With GGAAGAGCUCAACACAGUGUGGAAAAGUGGCUGUGGCUAGACUACC, the self-cleavage came to 0.53.
